Changes are numbered by the printed parent chain; changes in the protein carry UniProt numbers. The list shows a part of the results.
B1: GACGGCG (DNA:RNA)
RNA: GGGAGACCGGAAUUCAGAUUGUCCGACGGCGUUAAAUCCCGUCGUAGCCACCA
DNA 1: CAATCTGAATTCCGGTCTCCC
DNA 2: TGGTGGCTACGACGGGATT
B2: UUAUAGG (DNA:RNA)
RNA: B1 RNA with G25U, A26U, C27A, G28U, G29A, C30G
DNA 1: CAATCTGAATTCCGGTCTCCC
DNA 2: TGGTGGCTACGACGGGATT
B3: CACAGGA (DNA:RNA)
RNA: B1 RNA with G25C, G28A, C30G, G31A
DNA 1: CAATCTGAATTCCGGTCTCCC
DNA 2: TGGTGGCTACGACGGGATT
B4: UAUCGUG (DNA:RNA)
RNA: B1 RNA with G25U, C27U, G28C, C30U
DNA 1: CAATCTGAATTCCGGTCTCCC
DNA 2: TGGTGGCTACGACGGGATT
B5: AGUACGA (DNA:RNA)
RNA: GGGAGACCGGAAUUCAGAUUGUCCAGUACGAUUAAAUCCCGUCGUAGCCACCA
DNA 1: CAATCTGAATTCCGGTCTCCC
DNA 2: TGGTGGCTACGACGGGATT
B6: UUUGUUG (DNA:RNA)
RNA: B1 RNA with G25U, A26U, C27U, G29U, C30U
DNA 1: CAATCTGAATTCCGGTCTCCC
DNA 2: TGGTGGCTACGACGGGATT
B7: UGCAGGU (DNA:RNA)
RNA: B5 RNA with A25U, U27C, C29G, A31U
DNA 1: CAATCTGAATTCCGGTCTCCC
DNA 2: TGGTGGCTACGACGGGATT
B8: UUACUCC (DNA:RNA)
RNA: B1 RNA with G25U, A26U, C27A, G28C, G29U, G31C
DNA 1: CAATCTGAATTCCGGTCTCCC
DNA 2: TGGTGGCTACGACGGGATT
B9: AGUAGAG (DNA:RNA)
RNA: B5 RNA with C29G, G30A, A31G
DNA 1: CAATCTGAATTCCGGTCTCCC
DNA 2: TGGTGGCTACGACGGGATT
B10: CUGACGU (DNA:RNA)
RNA: B5 RNA with A25C, G26U, U27G, A31U
DNA 1: CAATCTGAATTCCGGTCTCCC
DNA 2: TGGTGGCTACGACGGGATT
B11: UCAUUAG (DNA:RNA)
RNA: B1 RNA with G25U, A26C, C27A, G28U, G29U, C30A
DNA 1: CAATCTGAATTCCGGTCTCCC
DNA 2: TGGTGGCTACGACGGGATT
B12: CGCGGAU (DNA:RNA)
RNA: B1 RNA with G25C, A26G, C30A, G31U
DNA 1: CAATCTGAATTCCGGTCTCCC
DNA 2: TGGTGGCTACGACGGGATT
B13: GAAAAUG (DNA:RNA)
RNA: B1 RNA with C27A, G28A, G29A, C30U
DNA 1: CAATCTGAATTCCGGTCTCCC
DNA 2: TGGTGGCTACGACGGGATT
B14: AUCGUGG (DNA:RNA)
RNA: B1 RNA with G25A, A26U, G29U, C30G
DNA 1: CAATCTGAATTCCGGTCTCCC
DNA 2: TGGTGGCTACGACGGGATT
B15: GAUUAAU (DNA:RNA)
RNA: B1 RNA with C27U, G28U, G29A, C30A, G31U
DNA 1: CAATCTGAATTCCGGTCTCCC
DNA 2: TGGTGGCTACGACGGGATT
B16: GGAUGGG (DNA:RNA)
RNA: B1 RNA with A26G, C27A, G28U, C30G
DNA 1: CAATCTGAATTCCGGTCTCCC
DNA 2: TGGTGGCTACGACGGGATT
B17: ACAGAUA (DNA:RNA)
RNA: B5 RNA with G26C, U27A, A28G, C29A, G30U
DNA 1: CAATCTGAATTCCGGTCTCCC
DNA 2: TGGTGGCTACGACGGGATT
B18: UGGAUUA (DNA:RNA)
RNA: B5 RNA with A25U, U27G, C29U, G30U
DNA 1: CAATCTGAATTCCGGTCTCCC
DNA 2: TGGTGGCTACGACGGGATT
B19: GGAAGGU (DNA:RNA)
RNA: B5 RNA with A25G, U27A, C29G, A31U
DNA 1: CAATCTGAATTCCGGTCTCCC
DNA 2: TGGTGGCTACGACGGGATT
B20: AUGUAUG (DNA:RNA)
RNA: B5 RNA with G26U, U27G, A28U, C29A, G30U, A31G
DNA 1: CAATCTGAATTCCGGTCTCCC
DNA 2: TGGTGGCTACGACGGGATT
B21: CGCGAGU (DNA:RNA)
RNA: B5 RNA with A25C, U27C, A28G, C29A, A31U
DNA 1: CAATCTGAATTCCGGTCTCCC
DNA 2: TGGTGGCTACGACGGGATT
B22: UACUGAU (DNA:RNA)
RNA: B1 RNA with G25U, G28U, C30A, G31U
DNA 1: CAATCTGAATTCCGGTCTCCC
DNA 2: TGGTGGCTACGACGGGATT
B23: CUACCUC (DNA:RNA)
RNA: B5 RNA with A25C, G26U, U27A, A28C, G30U, A31C
DNA 1: CAATCTGAATTCCGGTCTCCC
DNA 2: TGGTGGCTACGACGGGATT
B24: UACUCAG (DNA:RNA)
RNA: B1 RNA with G25U, G28U, G29C, C30A
DNA 1: CAATCTGAATTCCGGTCTCCC
DNA 2: TGGTGGCTACGACGGGATT
B25: CGCAACG (DNA:RNA)
RNA: B1 RNA with G25C, A26G, G28A, G29A
DNA 1: CAATCTGAATTCCGGTCTCCC
DNA 2: TGGTGGCTACGACGGGATT
B26: ACGUGCA (DNA:RNA)
RNA: B5 RNA with G26C, U27G, A28U, C29G, G30C
DNA 1: CAATCTGAATTCCGGTCTCCC
DNA 2: TGGTGGCTACGACGGGATT
B27: GGCGGCG (DNA:RNA)
RNA: B1 RNA with A26G
DNA 1: CAATCTGAATTCCGGTCTCCC
DNA 2: TGGTGGCTACGACGGGATT
B28: UAUACUC (DNA:RNA)
RNA: B5 RNA with A25U, G26A, G30U, A31C
DNA 1: CAATCTGAATTCCGGTCTCCC
DNA 2: TGGTGGCTACGACGGGATT
B29: GAGCGGA (DNA:RNA)
RNA: B1 RNA with C27G, G28C, C30G, G31A
DNA 1: CAATCTGAATTCCGGTCTCCC
DNA 2: TGGTGGCTACGACGGGATT
B30: UUGAGUU (DNA:RNA)
RNA: B5 RNA with A25U, G26U, U27G, C29G, G30U, A31U
DNA 1: CAATCTGAATTCCGGTCTCCC
DNA 2: TGGTGGCTACGACGGGATT
B31: CGCUGAC (DNA:RNA)
RNA: B1 RNA with G25C, A26G, G28U, C30A, G31C
DNA 1: CAATCTGAATTCCGGTCTCCC
DNA 2: TGGTGGCTACGACGGGATT

molecular target: T1, RBFOX1 RRM (Homo sapiens, UniProt Q9NWB1 109-208); assay: EMSA; HiTS-Eq, 1 nM pool, 10 min; buffer printed only for the single-RNA assays: 10 mM Tris pH 7.5, 150 mM NaCl, 3.4 mM EDTA, 0.001% NP-40, 30 C; settings: tags: His6 N-terminal (pET28a); label: 5' 32P
T1 sequence: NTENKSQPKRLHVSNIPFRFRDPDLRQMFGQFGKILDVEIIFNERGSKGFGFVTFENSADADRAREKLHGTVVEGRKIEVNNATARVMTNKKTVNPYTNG
How it was run: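 A pool of RNA with 7 randomized nucleotides, 5′-radiolabelled and with DNA-annealed flanks, was equilibrated at 1 nM for 10 min in 50 µL with purified RbFox RRM, wild type or mutant, across increasing protein concentrations. Free RNA was separated by 8% native PAGE, excised, reverse-transcribed, barcoded by PCR and sequenced. Relative association constants were obtained from read-count changes of each RNA species versus the control reaction and normalised to the cognate motif.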

Binder | binding signal
B1 | 0.0274 KA relative to UGCAUGU
B2 | 0.00353 KA relative to UGCAUGU
B3 | 0.00865 KA relative to UGCAUGU
B4 | 0.0156 KA relative to UGCAUGU
B5 | 0.00993 KA relative to UGCAUGU
B6 | 0.0349 KA relative to UGCAUGU
B7 | 0.0179 KA relative to UGCAUGU
B8 | 0.00151 KA relative to UGCAUGU
B9 | 0.011 KA relative to UGCAUGU
B10 | 0.0141 KA relative to UGCAUGU
B11 | 0.00799 KA relative to UGCAUGU
B12 | 0.0187 KA relative to UGCAUGU
B13 | 0.00709 KA relative to UGCAUGU
B14 | 0.00886 KA relative to UGCAUGU
B15 | 0.00943 KA relative to UGCAUGU
B16 | 0.0169 KA relative to UGCAUGU

Binder | binding signal
B17 | 0.00499 KA relative to UGCAUGU
B18 | 0.021 KA relative to UGCAUGU
B19 | 0.00747 KA relative to UGCAUGU
B20 | 0.012 KA relative to UGCAUGU
B21 | 0.0159 KA relative to UGCAUGU
B22 | 0.0134 KA relative to UGCAUGU
B23 | 0.00201 KA relative to UGCAUGU
B24 | 0.0175 KA relative to UGCAUGU
B25 | 0.00999 KA relative to UGCAUGU
B26 | 0.0167 KA relative to UGCAUGU
B27 | 0.0264 KA relative to UGCAUGU
B28 | 0.00278 KA relative to UGCAUGU
B29 | 0.0138 KA relative to UGCAUGU
B30 | 0.0158 KA relative to UGCAUGU
B31 | 0.016 KA relative to UGCAUGU
